Reference: article PMC6919601, “Identification of Plasmodium dipeptidyl aminopeptidase allosteric inhibitors by high throughput screening” (PLoS ONE, 2019)
Several values for one entry are separate records, joined by “and”; a condition that tells them apart may be missing. Identical values can stand only once. The whole screen tested about 110,000 compounds, of which about 230 (0.21%) showed an effect of 50% or more. The list shows a part of the results.

Each compound was assayed against DPAP1 (Plasmodium falciparum, UniProt Q8IIJ9) (assay: primary screen, percent inhibition; read by cleavage of a fluorogenic dipeptide substrate; higher = more effect of the substance).
Design: species or system P. falciparum D10 trophozoite lysates; single well
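Note: 30 min substrate incubation versus DMSO and 10 µM JCP410 controls.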

DPAP1, sequence (Q8IIJ9 whole entry, looked up): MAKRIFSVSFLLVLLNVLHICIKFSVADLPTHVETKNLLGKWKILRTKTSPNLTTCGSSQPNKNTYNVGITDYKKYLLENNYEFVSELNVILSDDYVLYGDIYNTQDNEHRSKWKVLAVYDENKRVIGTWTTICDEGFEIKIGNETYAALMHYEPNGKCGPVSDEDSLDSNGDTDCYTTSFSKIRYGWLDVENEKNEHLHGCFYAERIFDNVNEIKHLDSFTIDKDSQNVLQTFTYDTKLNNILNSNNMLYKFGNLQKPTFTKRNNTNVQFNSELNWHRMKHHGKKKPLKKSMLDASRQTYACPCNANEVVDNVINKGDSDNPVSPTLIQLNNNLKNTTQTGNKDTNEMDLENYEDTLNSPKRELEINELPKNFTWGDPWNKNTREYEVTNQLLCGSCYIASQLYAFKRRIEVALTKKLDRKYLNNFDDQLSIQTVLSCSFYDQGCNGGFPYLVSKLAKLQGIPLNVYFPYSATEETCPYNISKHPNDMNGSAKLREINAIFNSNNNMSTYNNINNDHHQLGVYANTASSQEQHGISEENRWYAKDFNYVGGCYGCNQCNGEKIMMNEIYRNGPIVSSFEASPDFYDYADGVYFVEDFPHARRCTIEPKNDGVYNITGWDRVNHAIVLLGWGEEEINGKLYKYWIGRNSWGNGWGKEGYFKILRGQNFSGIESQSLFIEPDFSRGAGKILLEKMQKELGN

Compared with CC1(C(=O)Nc2nc3ccccc3s2)Cc2ccccc2C(=O)O1 (stereo not drawn), Nc1c(C(=O)c2ccccc2)sc2nc(-c3ccccc3)ccc12 is higher in “% Inhibition @ 10 uM” value: -2.67% for the first, 3.54% for the second.

Compared with O=C(N/C(=C\c1cn(-c2ccccc2)nc1-c1ccccc1)C(=O)N1CCOCC1)c1ccccc1, O=C(NC(Cc1ccccc1)c1ccc2c(c1)OCCCO2)c1ccccc1 (stereo not drawn) is higher in “% Inhibition @ 10 uM” value: -4.67% for the first, 0.475% for the second.

First: O=C(O)c1ccccc1SCC(=O)N1CCCCC1
Second: CC(C(=O)c1ccc2ccccc2c1)N1CCCCC1 (stereo not drawn)
The “% Inhibition @ 10 uM” value of the first is higher: 5.38% for the first, 3.24% for the second.

Going from COCc1cc(C)nc(SCC(=O)Nc2cccc(C)c2)c1C#N to Cc1ccc(C(=O)CC2(O)C(=O)N(C)c3ccc(Br)cc32)c(C)c1 (stereo not drawn), the “% Inhibition @ 10 uM” value falls from 6.29% to 3.21%.

First: Cc1nc2sccn2c(=O)c1S(=O)(=O)N1CCN(C2CCCCC2)CC1
Second: CC1CCN(C(=O)c2nn(C)c(=O)c3ccccc23)CC1
The “% Inhibition @ 10 uM” value of the first is higher: 3.5% for the first, 0.628% for the second.

Compared with CCc1ccc(OCC(=O)N(CC)c2ccccc2)cc1, CCN(CC)C(=O)COc1ccc(-c2nnc(NCc3ccccc3)c3ccccc23)cc1 is lower in “% Inhibition @ 10 uM” value: -1.89% for the first, -5.15% for the second.

Compared with Cn1c(=O)c2c(nc3n(-c4ccc5c(c4)OCO5)c(-c4ccccc4)cn23)n(C)c1=O, CCn1c(Oc2ccc3c(C)cc(=O)oc3c2)nc2c1c(=O)n(C)c(=O)n2C is higher in “% Inhibition @ 10 uM” value: 1.58% for the first, 1.76% for the second.

First: CCOc1ccc(C(=O)NCc2ccc(C)cc2)cc1
Second: Cc1ccc(CNC(=O)CN(C)S(=O)(=O)c2cccs2)cc1
The “% Inhibition @ 10 uM” value of the first is higher: -1.82% for the first, -2.56% for the second.

Going from COC(=O)c1ccc(-c2ccc(CNCCNC(=O)c3nonc3N)o2)cc1 to CN1C(=O)/C(=C/c2ccc(-c3ccc(C(=O)O)cc3)o2)S/C1=N/c1ccc(C(=O)O)cc1, the “% Inhibition @ 10 uM” value rises from 3.27% to 3.86%.

Going from C=CCc1cc(C)ccc1OCC(O)CN1CCCCC1 (stereo not drawn) to CCOc1ccc(CCNc2ncnc3c2nc2n3CCCCC2)cc1OCC, the “% Inhibition @ 10 uM” value rises from 0.389% to 3.48%.

First: O=[N+]([O-])c1ccc(O)c([C@H]2NCC[C@@]3(O)CCCC[C@H]23)c1
Second: O=C(c1ccc([N+](=O)[O-])cc1Cl)N1CCc2ccccc21
The “% Inhibition @ 10 uM” value of the first is lower: -4.01% for the first, -3.15% for the second.

Going from O=C(Cc1ccc(-n2cccc2)cc1)NCc1cccs1 to COc1ccc(CC(=O)NCc2nnc(SCC(=O)Nc3nccs3)n2-c2ccccc2)cc1, the “% Inhibition @ 10 uM” value falls from 2.8% to -1.3%.

Going from COc1ccc(OC)c(/C=c2\sc3nc(-c4ccc(OC)c(OC)c4)nn3c2=O)c1 to COc1cccc(/C=c2/sc3nc(/C=C/c4ccc(Cl)cc4)nn3c2=O)c1, the “% Inhibition @ 10 uM” value rises from -1.18% to 3.25%.

First: COC(=O)c1cc(C)c(Br)c([N+](=O)[O-])c1
Second: COc1cc(CNC(=O)c2nc(Cn3nc(C)c(Br)c3C)no2)cc(OC)c1
The “% Inhibition @ 10 uM” value of the first is higher: 0.968% for the first, -4.11% for the second.

Going from Cc1ccc(-n2nnc(-c3nsc(NC(=O)c4ccccc4)n3)c2C)cc1Cl to Nc1c(-c2nc(-c3ccccc3)no2)nnn1-c1ccc(F)cc1F, the “% Inhibition @ 10 uM” value rises from -10.3% to -0.485%.

First: Cc1sc(NC(=O)C2CCCCC2C(=O)O)c(C(N)=O)c1-c1ccc(C(C)C)cc1 (stereo not drawn)
Second: CC(=O)c1cc(-c2ccccc2)n(CCC(=O)NC2CCC(C)CC2)c1C (stereo not drawn)
The “% Inhibition @ 10 uM” value of the first is lower: -0.318% for the first, 4.42% for the second.

First: COc1ccc(S(=O)(=O)N(CC(=O)NC2CC3CCC2C3)c2ccc(Cl)cc2)cc1 (stereo not drawn)
Second: O=S(=O)(c1ccc(-c2ccccc2)cc1)N1CCSC1c1ccco1 (stereo not drawn)
The “% Inhibition @ 10 uM” value of the first is higher: -2.28% for the first, -5.81% for the second.

Compared with O=C(NCc1ccc(F)cc1)C1CCN(Cc2cnn(-c3ccccc3)c2-n2cccc2)CC1, Nc1c(C(=O)NCc2ccccc2)nnn1Cc1ccc(F)cc1Cl is higher in “% Inhibition @ 10 uM” value: -1.08% for the first, -0.58% for the second.

Going from COc1ccc2c(c1)CC/C(=C\c1ccc(OC)c(Cn3cccn3)c1)C2=O to COc1ccc(-c2cc(C)no2)cc1S(=O)(=O)N1CC=C(c2ccccc2)CC1, the “% Inhibition @ 10 uM” value falls from 2.59% to 1.84%.

Going from C=CCNC1=C(Cl)C(=O)N(c2ccc(Cl)cc2)C1=O to O=C(Nc1cccc(F)c1)c1ccc(N2C(=O)c3ccccc3C2=O)cc1, the “% Inhibition @ 10 uM” value falls from 0.385% to -3.71%.

First: Cc1csc(NC(=O)CCNS(=O)(=O)c2cc(Br)cnc2N)n1
Second: CCCSCCCNC(=O)c1cc(C)nc2c1c(C)nn2-c1cccc(Cl)c1C
The “% Inhibition @ 10 uM” value of the first is higher: 0.813% for the first, -3% for the second.

Compared with Cc1ccc(Cn2c(=O)c3cccnc3n(Cc3ccc(Cl)cc3)c2=O)cc1, O=S1(=O)N=C(Nc2cccc3c(O)cccc23)c2ccccc21 is higher in “% Inhibition @ 10 uM” value: -3.44% for the first, -0.425% for the second.

First: Nc1nc(-c2ccc(-c3ccccc3)cc2)cc(-c2ccccc2O)n1
Second: O=c1cc2nc(-c3ccccc3)nc(SCCOc3ccccc3Cl)n2[nH]1
The “% Inhibition @ 10 uM” value of the first is lower: -8.3% for the first, 0.234% for the second.

First: Cc1cccc(N2C(=O)CC(N3CCc4ccccc4C3)C2=O)c1 (stereo not drawn)
Second: O=C(c1ccccc1)c1ccc2nc(NCCC3=CCCCC3)c3nncn3c2c1
The “% Inhibition @ 10 uM” value of the first is lower: -8.4% for the first, -7.28% for the second.

Compared with O=C(O)CCC(=O)NCCNC(=O)C1CCCNC1=O (stereo not drawn), C=CCNC(=O)C(C(=O)OCC)C1CCCCC1 (stereo not drawn) is lower in “% Inhibition @ 10 uM” value: 2.03% for the first, -6.09% for the second.

First: CCCCN(CCCC)C(=O)c1cc(-c2ccccc2)[nH]n1
Second: CCN(CC)CCn1c(C)nc(=O)c(-c2ccccc2)c1C
The “% Inhibition @ 10 uM” value of the first is lower: -2.56% for the first, 0.431% for the second.

Compared with O=C(O)CNC(=O)C(O)(c1ccccc1)c1ccccc1, C=CCNC(=O)/C(=C/c1ccccc1)NC(=O)c1ccccc1OC is higher in “% Inhibition @ 10 uM” value: -1.47% for the first, -1.19% for the second.

Compared with Cc1ccc2c(=O)cc(C(=O)N(Cc3cccs3)C3CCS(=O)(=O)C3)oc2c1 (stereo not drawn), COCCCNC(=O)N1CCN(c2nnc(C)c3c(C)n(-c4ccccc4)nc23)CC1 is higher in “% Inhibition @ 10 uM” value: -1.47% for the first, 1.63% for the second.

First: COc1ccc(C(=O)Nc2ccc(CC#N)cc2)cc1OC
Second: CN1CCN(c2ccc(Nc3ncnc4sc5c(c34)CCCC5)cc2)CC1
The “% Inhibition @ 10 uM” value of the first is lower: -5.47% for the first, 8.87% for the second.

First: CCC(Sc1nc2nccnc2c(=O)n1CCc1ccccc1)C(=O)NC1CCCCC1 (stereo not drawn)
Second: CC(=O)N1CCN(Cc2cccnc2)CC1
The “% Inhibition @ 10 uM” value of the first is lower: -6.65% for the first, 5.2% for the second.

First: CC(C)(C)OC(=O)N1CC2CC(C1)c1cccc(=O)n1C2 (stereo not drawn)
Second: C=CCN1C(=S)NC2CC1(C)Oc1ccc(Cl)cc12 (stereo not drawn)
The “% Inhibition @ 10 uM” value of the first is higher: 1.88% for the first, -0.58% for the second.

In the case of O=C(O)CCc1c(-c2ccc(Br)cc2)nc2ccccn12, the “% Inhibition @ 10 uM” value is reported as 2.38% and 4.31%.
